Experimental data: patent WO2012132067A1

How the values were obtained:
human FcγRIIa(H) (human) [1] = target: human FcγRIIa(H) (human) (UniProt P12318); experiment: Biacore T100, Protein A capture, 25 C; KD by the steady-state formula; against IgG1 (IL6R-G1d)
[2] = target: FcγRIIIa (allotype not stated, Example 13) (human) (UniProt P08637); experiment: as above
human FcγRIIb (human) = human FcγRIIb (human) (UniProt P31994); experiment: Biacore T100, Protein A capture, 25 C; against IgG1 (IL6R-G1d)
UniProt P31994, sequence (P31994 43-217 limits assumed): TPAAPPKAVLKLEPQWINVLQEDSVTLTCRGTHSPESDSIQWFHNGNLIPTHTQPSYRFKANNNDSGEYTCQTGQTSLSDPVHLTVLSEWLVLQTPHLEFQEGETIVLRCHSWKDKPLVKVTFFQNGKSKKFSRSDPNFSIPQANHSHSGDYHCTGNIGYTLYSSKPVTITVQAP

human FcγRIIa(R) (human) = human FcγRIIa(R) (human) (UniProt P12318); experiment: as above
human FcγRIIa(H) (human) [3] = target: human FcγRIIa(H) (human) (UniProt P12318); experiment: Biacore T100, Protein A capture, FcγR at 2 μmol/L, 25 C
[4] = target: FcγRIIIa (allotype not stated, Example 13) (human) (UniProt P08637); experiment: as above
human FcγRIa (human) = human FcγRIa (human) (UniProt P12314); experiment: Biacore T100, Protein A capture, 25 C; against IgG1 (IL6R-G1d)
UniProt P12314, sequence (P12314 16-292 limits assumed): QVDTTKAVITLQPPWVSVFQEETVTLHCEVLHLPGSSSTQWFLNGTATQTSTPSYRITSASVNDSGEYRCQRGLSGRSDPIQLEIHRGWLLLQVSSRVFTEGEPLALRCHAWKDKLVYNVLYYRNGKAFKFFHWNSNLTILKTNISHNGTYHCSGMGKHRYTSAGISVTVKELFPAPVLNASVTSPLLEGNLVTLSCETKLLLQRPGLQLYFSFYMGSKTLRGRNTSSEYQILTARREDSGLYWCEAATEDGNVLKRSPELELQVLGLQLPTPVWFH

UniProt P08637, sequence (P08637 other isoform, or with tags, fused parts or gaps limits assumed): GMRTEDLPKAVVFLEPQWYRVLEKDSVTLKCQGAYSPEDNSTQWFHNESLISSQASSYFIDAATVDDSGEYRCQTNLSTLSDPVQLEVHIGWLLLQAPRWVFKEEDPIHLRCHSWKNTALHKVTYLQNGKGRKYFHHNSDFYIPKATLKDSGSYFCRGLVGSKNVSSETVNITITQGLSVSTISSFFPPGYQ

relative KD (KD of IgG1 divided by KD of the variant) (human FcγRIIa(H) (human) [1]) [fold] | relative KD (KD of IgG1 divided by KD of the variant) [2] [fold] | relative KD (KD of IgG1 divided by KD of the variant) (human FcγRIIb (human)) [fold] | relative KD (KD of IgG1 divided by KD of the variant) (human FcγRIIa(R) (human)) [fold] | binding response (Req) (human FcγRIIa(H) (human) [3]) [RU] | binding response (Req) [4] [RU] | relative KD (KD of IgG1 divided by KD of the variant) (human FcγRIa (human)) [fold] | Binder
0.064 | 0.14 | 2.3 | 0.41 | 10 | 5 | – | IgG1-v2 (IL6R-G1d_v2/IL6R-L) (antibody) heavy: QVQLQESGPGLVKPSETLSLTCAVSGHSISHDHAWSWVRQPPGEGLEWIGFISYSGITNYNPSLQGRVTISRDNSKNTLYLQMNSLRAEDTAVYYCARSLARTTAMDYWGEGTLVTVSS[… human IgG1 constant region with L328E (EU numbers) …] light: DIQMTQSPSSLSASVGDRVTITCRASQDISSYLNWYQQKPGKAPKLLIYYTSRLHSGVPSRFSGSGSGTDFTFTISSLQPEDIATYYCQQGNTLPYTFGQGTKVEIK
0.014 | 0.061 | 4.8 | 0.1 | 2.5 | 2.5 | 0.047 | IgG1-v1 (IL6R-G1d_v1/IL6R-L) (antibody) heavy: QVQLQESGPGLVKPSETLSLTCAVSGHSISHDHAWSWVRQPPGEGLEWIGFISYSGITNYNPSLQGRVTISRDNSKNTLYLQMNSLRAEDTAVYYCARSLARTTAMDYWGEGTLVTVSS[… human IgG1 constant region with P238D (EU numbers) …] light: DIQMTQSPSSLSASVGDRVTITCRASQDISSYLNWYQQKPGKAPKLLIYYTSRLHSGVPSRFSGSGSGTDFTFTISSLQPEDIATYYCQQGNTLPYTFGQGTKVEIK
